From PubChem BioAssay AID488969 (Vanderbilt High Throughput Screening Facility, 2010) come the findings set out here.

The full ranking holds about 110,000 compounds; the median of “z-score” is about -0.1, and the highest 2% start at about 2. Some of the results follow. The source made the active and inactive calls.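 How the source made its calls: active means z-score in the third read window above 3 or below -3; inactive means the rest.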

In the assay the target is Metabotropic glutamate receptor 8 (Rattus norvegicus) (UniProt P70579). As to the kind of experiment: rat mGluR8 modulators via GIRK flux, primary screen, cell-based, thallium flux, HTS (AID 488969). The settings on record: HEK293 rat mGluR8, GIRK (G protein-gated inwardly rectifying potassium channel) thallium flux, FluoZin2; at 10 µM; stronger effect = higher value; submaximal glutamate (EC20) added with thallium.
Sequence of UniProt P70579 (P70579 whole entry, looked up): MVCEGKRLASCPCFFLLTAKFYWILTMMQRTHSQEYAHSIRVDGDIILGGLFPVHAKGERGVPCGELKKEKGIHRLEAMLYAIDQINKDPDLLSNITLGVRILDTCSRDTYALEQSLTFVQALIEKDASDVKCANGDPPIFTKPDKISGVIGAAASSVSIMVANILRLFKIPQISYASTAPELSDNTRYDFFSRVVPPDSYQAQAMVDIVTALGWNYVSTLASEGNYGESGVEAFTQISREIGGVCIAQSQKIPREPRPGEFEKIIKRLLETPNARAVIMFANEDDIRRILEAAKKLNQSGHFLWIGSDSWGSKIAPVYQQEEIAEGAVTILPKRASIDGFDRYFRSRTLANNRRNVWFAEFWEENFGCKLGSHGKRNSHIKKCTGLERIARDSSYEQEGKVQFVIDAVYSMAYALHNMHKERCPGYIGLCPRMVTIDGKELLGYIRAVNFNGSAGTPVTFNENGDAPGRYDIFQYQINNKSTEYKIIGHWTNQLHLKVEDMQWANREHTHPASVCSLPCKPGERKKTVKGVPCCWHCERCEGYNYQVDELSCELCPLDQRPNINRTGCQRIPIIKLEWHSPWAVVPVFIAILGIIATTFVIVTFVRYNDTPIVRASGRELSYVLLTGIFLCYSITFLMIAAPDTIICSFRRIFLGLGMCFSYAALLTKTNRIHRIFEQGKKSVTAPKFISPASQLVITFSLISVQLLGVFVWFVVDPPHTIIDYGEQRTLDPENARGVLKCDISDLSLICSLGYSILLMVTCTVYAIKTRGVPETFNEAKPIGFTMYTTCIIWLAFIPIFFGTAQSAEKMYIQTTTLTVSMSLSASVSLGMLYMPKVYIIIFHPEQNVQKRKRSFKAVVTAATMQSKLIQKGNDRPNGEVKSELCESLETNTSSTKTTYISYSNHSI
In turn, `CCCCC(=Nc1ccccc1OC)C1=C(O)CC(c2ccccc2)CC1=O` (stereo not given) had a z-score of 0.397.

For the compound `CCC1C(C#N)=C(N)OC2=C1C(=O)CC(C)(C)C2` (stereo not given), the z-score is -0.381. Regarding `Cc1ccc(SCC2CNc3nc4ccccc4c(=O)n32)c(C)c1` (stereo not given), the z-score is -0.163. For `O=C(COc1ccccc1)NC(NC(=S)Nc1ccccc1O)C(Cl)(Cl)Cl` (stereo not given), the z-score was determined as 0.583. As for `COc1ccc(N2C(=NC(C)=O)SC3CS(=O)(=O)CC32)cc1OC` (stereo not given), the z-score was 0.218.

`Cc1cc(C)c2c(CC(=O)NCc3ccco3)coc2c1` came in with a z-score of -0.311. Consider `Cc1cc(C)n(-c2nnc(C)n2/N=C/c2ccccc2OCc2ccccc2Cl)n1`, for which the z-score is active: -3.41. With `COc1ccc(NC(=O)c2cc3n(n2)C(C(F)(F)F)CC(c2ccc(OC)cc2)N3)cc1` (stereo not given), the z-score is -0.143. The compound `COc1ccc(NC(=O)CC2Sc3ncnn3C2=O)cc1` (stereo not given) had a z-score of 0.561. As for `CCS(=O)(=O)N1CCCC(C(=O)NCCCN(C)Cc2ccccc2)C1` (stereo not given), the z-score is 0.505. The compound `Cc1cc(OCC(=O)NCCCN2CCOCC2)cc(C)c1Cl` yielded a z-score of 0.729. `CC1CN(C(=S)SCCN2Cc3ccccc3C2=O)CC(C)O1` (stereo not given) gave a z-score of -0.252.

`COc1ccc(NCC(=O)Nc2ccc(C#N)cc2)cc1Cl` had a z-score of -0.325.

As to `O=C1C2CCCN2C(c2ccc(F)c(F)c2)N1c1cccc(Cl)c1` (stereo not given), the z-score was -0.234. To `Cc1ccc(S(=O)(=O)NCc2nc3ccccc3[nH]2)cc1` belongs -0.359; to `CC(C)(C)Nc1nc(Cl)nc(NC(C)(C)C)n1`, -0.0263; to `Cc1c(NC(=O)c2ccccc2NS(=O)(=O)c2ccc(F)cc2)c(=O)n(-c2ccccc2)n1C`, -0.385.

In turn, `COc1ccc(C(=O)NCc2ccccc2)cc1S(=O)(=O)N1CCCc2ccccc21` had a z-score of -0.572. As to `CCCCc1nc(NCCN2CCOCC2)c(C#N)c2c1COC(C)(C)C2`, the z-score was -0.414. Turning to `O=C(Cn1nnc(-c2ccccc2Cl)n1)NCc1ccc2c(c1)OCO2`, the z-score was -0.0315. For `C=CCOc1ccc(/C(CC)=N/O)c(OC)c1`, the z-score came out at 0.337. In turn, `O=C(Cn1c(=O)sc2ccccc21)Nc1ccccc1C(=O)O` showed a z-score of -0.0627. As for `Oc1ccccc1/C=N/n1cnnc1`, the z-score is 0.0162. To `COc1ccc(S(=O)(=O)N(C)CC(=O)NCc2ccco2)cc1` belongs -0.29.

Compound `Cc1cccc(CCNC(=O)C2CCCN(S(=O)(=O)c3cnc[nH]3)C2)c1` (stereo not given) returned a z-score of 0.438.

As to `Cc1cccc(NC(=O)NCc2ccccn2)c1`, the z-score is -0.194. As to `Cc1cc2cc(CN(CC3CCCO3)C(=O)c3cnccn3)c(=O)[nH]c2cc1C` (stereo not given), the z-score was -0.113. `COc1ccc(N2Cc3cccc(C(=O)N4CCN(C(=O)c5ccco5)CC4)c3C2=O)cc1` showed a z-score of -0.0557.

`CCN(CC)CCn1c(=S)[nH]c2ccccc2c1=O` displayed a z-score of -2.46. Then `CC(C)Cn1nc(NC(=O)C(C)(C)C)c2cc3ccccc3nc21`, with -0.625; and `CCOc1c(Cl)cc(C(=O)NCCN2CCCCC2)cc1Cl`, with 1.48; and `COc1ccc(C(=O)NC(=O)COC(=O)C2COc3ccccc3O2)cc1` (stereo not given), with -0.358. For `COCCNC(=O)C(c1cccs1)N(C(=O)Cn1nnc2ccccc21)c1ccc(OC)cc1` (stereo not given), the z-score stood at 0.0248. Then `CC(=O)c1ccc2c3c(cccc13)C(=O)N(c1c(C)nn(C)c1C)C2=O`, with 0.156. For the compound `COc1ccc(-c2cnn3c4c(c(C)nc23)CCN4C2CCCC2)cc1OC`, the z-score was -0.282. Compound `CC(C)N1C(=S)SC(C)(C)C1NO` (stereo not given) gave a z-score of -0.154.

`Cc1c(NC(=O)CCC2CCCCC2)c(=O)n(-c2ccccc2)n1C` yielded a z-score of 2.9. Take `C1CCc2c(nnc3c2-c2nonc2CC3)C1`: the z-score came out at 1.08.

On to `O=C(CC(c1ccccc1)c1ccco1)N1CCOCC1` (stereo not given), for which the z-score is -0.942. The compound `O=C(CSc1nc2ccccc2n1S(=O)(=O)c1ccccc1)N1CCCC1` gave a z-score of 1.76. On to `COc1ccc(NC(=O)CN2CCN(Cc3ccc4c(c3)OCO4)CC2)cc1OC`, for which the z-score is 0.0642. `COc1ccccc1C(=O)Nc1ccc(N2CCN(Cc3ccccc3)CC2)cc1` showed a z-score of -0.143. In turn, `COc1ccc(NC(=O)Nc2nnc(C(C)C)s2)cc1` registered a z-score of -1.86. To `C=CCNC(=S)Nc1sc2c(c1C(=O)OCC)CCN(C(=O)OCC)C2` belongs 0.145. Then `O=C(CCSc1ccc(Cl)cc1)N1CCCCCC1`, with -0.316; and `COC(=O)c1sc(NC(=O)Cc2cccs2)nc1C`, with 0.604; and `COc1ccc(C(=O)OCCN2CCOCC2)cc1`, with 0.338. For `Cc1cccc2cc(COC(=O)C(C)C)c(=O)[nH]c12`, the z-score is -0.479. To `CC1(C)CC(=O)C2=C(C1)Oc1ncn(CCCn3ccnc3)c(=N)c1C2c1ccccc1` (stereo not given) belongs -1.99.

On to `COc1ccc(OC)c(C2CC(=O)N3CN(c4ccccc4)CSC3=C2C#N)c1` (stereo not given), for which the z-score was -0.44. With `CCCc1nc2sc3c(=O)n(N)cnc3c2c2c1CCCC2`, the z-score was -0.191.

In turn, `CSc1nc(N)nc(SCC(=O)CC(=O)OC(C)C)c1C#N` registered a z-score of -0.324. To `CN(C1CCS(=O)(=O)C1)S(=O)(=O)c1ccccc1[N+](=O)[O-]` (stereo not given) belongs -0.161; to `COc1ccc(C(=O)c2ccc(OC)c(OC)c2)cc1`, -0.149.

In the case of `Cc1ccc(NC(=O)CN(C)C(=O)c2ccc(Cl)c([N+](=O)[O-])c2)cc1`, the z-score is -0.273. Regarding `CCOC(=O)CNc1nc(OCC#N)nc(N2CCOCC2)n1`, the z-score is -1.26. `CC(=O)Nn1c(COc2ccccc2C)nc2ccccc2c1=O` had a z-score of 0.505. To `CCCCCc1nc2ccccc2c(=O)n1N` belongs 0.685. In turn, `N#Cc1ccccc1NC(=O)Nc1ccc(Cl)cc1` registered a z-score of 0.331.

With `CC1CCC(=NNc2ccc(C(F)(F)F)cc2[N+](=O)[O-])CC1` (stereo not given), the z-score was found to be 0.219. Turning to `CC(C)CSc1nc(N2CCOCC2)c2c(c1C#N)CC(C)(C)SC2`, the z-score is -0.0517. Then `CC(=O)Nc1c(O)nc(SCC(=O)N2CCN(c3ccc(F)cc3)CC2)[nH]c1=O`, with -0.563; and `Cc1ccc(CNC(=O)C2CC(c3ccccc3[N+](=O)[O-])=NO2)o1` (stereo not given), with -0.211.

Consider `Cc1ccnc(NS(=O)(=O)c2ccc(NC(=O)C34CC5CC(CC(C5)C3)C4)cc2)n1`, for which the z-score was -0.303. Turning to `CC(C)(C)NC(=S)Nc1ccc(Nc2ccccc2)cc1`, the z-score was -0.0456. As for `Cc1ccccc1-n1c(=O)c2ccccc2n2cnnc12`, the z-score is -0.293. The compound `CC(=O)c1cccc(N(CC(=O)N2CCCC2)S(C)(=O)=O)c1` showed a z-score of -0.101.

In the case of `O=C1c2ccccc2C(Nc2ccccc2F)N1c1cccnc1` (stereo not given), the z-score was -0.13. Compound `COc1cc(NC(=O)CN(C)S(=O)(=O)c2ccc3c(c2)CCC(=O)N3)cc(OC)c1` had a z-score of -0.176. `Cc1ccc(C)c(N(CC(=O)Nc2ccccc2C(=O)NCc2ccco2)S(=O)(=O)c2ccccc2)c1`: the z-score is -1.56. In turn, `O=C(NCC1CCCO1)C(c1cccs1)N(C(=O)c1ccc(CN2CCOCC2)o1)c1ccc(Cl)cc1` (stereo not given) came in with a z-score of -0.115. For the compound `CN1c2ccccc2C(C)(C)[C@]12C=Cc1cc(O)ccc1O2`, the z-score is -0.11. Then `CCc1ccc(C(C(=O)NC(C)(C)CC)N(Cc2ccco2)C(=O)Cn2nnc3ccccc32)cc1` (stereo not given), with -0.412. With `Cc1ccc(C(=O)NCC(=O)Nc2ccccc2C(F)(F)F)cc1`, the z-score is -0.238. The compound `Cc1cc(NC(=O)CSc2nc3ccccc3n2CC(=O)N2CCC(C)CC2)no1` registered a z-score of -0.223. As to `COc1ccc(Cn2c3ccc(OC)cc3c3nc4ccccc4nc32)cc1`, the z-score is -0.12.

As to `O=c1c(-c2ccc(Oc3ccccc3)cc2)[n+]([O-])c2ccccc2n1OCc1ccccn1`, the z-score is -0.0632. Then `Cc1ccc(NC(=O)c2cc(NC(=O)c3ccco3)ccc2N2CCOCC2)cc1Cl`, with -0.192; and `C=CCOC(=O)C1=C(C)Nc2nnnn2C1c1cccs1` (stereo not given), with -1.38; and `COC(=O)c1ccc2c(c1)nc(C)n2CCO`, with -0.0312.

`CC(=O)c1ccc(NC2OC(C)C(O)C(O)C2O)cc1` (stereo not given) came in with a z-score of 0.292. On to `COC(=O)c1sccc1NC(=O)c1ccc(OC)c(OC)c1`, for which the z-score is -0.0665. With `CCOC(=O)Cc1cc(=O)n2[nH]c(C)c(-c3ccc(Cl)cc3)c2n1`, the z-score is 0.263.

`CCOC(=O)C(NC(C)=O)(OCc1ccc(F)cc1)C(F)(F)F` (stereo not given) had a z-score of 0.158.

Regarding `CCc1c(C)nc(Nc2nc(C)c3cc(OC)ccc3n2)[nH]c1=O`, the z-score is -0.364.

`CC(=O)c1nn(-c2cccc(Br)c2)cc1C(=O)c1ccc(Br)cc1` displayed a z-score of 0.113. As to `COc1ccc(C(C(=O)NC(C)(C)C)N(C(=O)CNC(=O)c2cccs2)c2ccc(C)cc2)cc1OC` (stereo not given), the z-score is -0.0112. Regarding `Cn1c(=O)c2c(nc(N3CCc4ccccc4C3)n2Cc2ccccc2F)n(C)c1=O`, the z-score was -0.552. Consider `COc1ccccc1CNC(=O)CSc1nc(N)c(C#N)c(-c2cccs2)c1C#N`, for which the z-score is -0.261. In the case of `O=C(Nc1ccc(Cl)cc1Cl)c1n[nH]c(Cn2cncn2)n1`, the z-score stood at 0.627. Take `COc1ccc(-c2ccc(-c3nc4c(c(=O)[nH]c(=O)n4Cc4ccccc4)n3C)o2)c([N+](=O)[O-])c1`: the z-score is -0.405. With `COc1ccc(NC(=O)/C(C#N)=C/c2ccc(OCc3ccccc3F)cc2)cc1`, the z-score is -0.0251.

Compound `O=C(Nc1cccc(C(F)(F)F)c1)c1ccc2nc(-c3ccco3)c(-c3ccco3)nc2c1` registered a z-score of 0.234. `CCN(CC)c1ccc(/C=N/N2CCN(Cc3cccc4ccccc34)CC2)c(O)c1`: the z-score was -0.00408. To `CC(C)c1ccc(NC(=O)CSc2nnc(-c3ccccn3)n2C)cc1` belongs 0.204; to `CC(C)OCCCNC(=O)C1CCC(=O)N1C1CCCC1` (stereo not given), -0.382. `CSc1ccc(S(=O)(=O)NCc2ccc(Cl)cc2Cl)cc1` yielded a z-score of -0.289.

Consider `CC1(C)CC(CCNC(=O)c2ccc(-n3cnnn3)cc2)CC(C)(C)N1`, for which the z-score came out at 0.34. As for `CC1=CC(C)(C)N(C(=O)c2ccccc2)c2ccc(C)cc21`, the z-score is -0.576. As for `CCCC1(CCC)NC(=O)N(CC(=O)c2cc(C)n(-c3ccc4c(c3)OCO4)c2C)C1=O`, the z-score is -0.0921. To `CCS(=O)(=O)Nc1ccc(C(=O)CC2(O)C(=O)Nc3ccccc32)cc1` (stereo not given) belongs -0.00986; to `Cc1cc(-n2c(C)cc(C(=O)CN3C(=O)NC4(CCCCC4C)C3=O)c2C)no1` (stereo not given), -1.1; to `CC(=O)NCc1ccc(S(=O)(=O)N/N=C/c2ccc(Br)cc2)cc1`, -0.289. For the compound `COCCOC(=O)C1=C(C)NC2=C(C(=O)CC(C)(C)C2)C1c1cc2c(cc1Br)OCO2` (stereo not given), the z-score was -0.102. To `CC(=O)C1=C(c2ccccc2)NC(=O)NC1c1ccccc1OCC#N` (stereo not given) belongs 1.96; to `O=C(CS(=O)c1cccc(Cl)c1)Nc1ccccc1Cl` (stereo not given), 0.0755. The compound `CCCCC(=O)NCc1ccc(Cl)cc1` came in with a z-score of -0.0907. Then `COc1ccc(C(=O)N2CC3(C)CC2CC(C)(C)C3)cc1` (stereo not given), with 0.00843; and `CCCOc1c(Cl)cc(/C=N/O)cc1OCC`, with -0.48; and `Cc1nc2cc3ccccc3cc2c(=O)[nH]1`, with -0.408.
